# The full ranking holds about 81,000 sequences; the median of “one-hybrid fitness for binding parS DNA” is about -0.17, and the highest 2% start at about 0.51. This is one part of the list.
# B1: Caulobacter ParB omega fusion; a variant is named by its letters at X, in order, B8GW30 (parent)
# chain: MESVVVGEPGMSEGRRGLGRGLSALLGEVDAAPAQAPGEQLGGSREAPIEILQRNPDQPRRTFREEDLEDLSNSIREKGVLQPILVRPSPDTAGEYQIVAGERAWRAAQRAGLKTVPIMVRELDDLAVLEIGIIENVQRADLNVLEEALSYKVLMEKFERTQENIAQTIGKSXSHVANXMRLLXLPDEVQSYLVSGELTAXHARAIAAAADPVALAKQIIEGGLSVRETEALARKAPNLSAGKSKGGRPPRVKDTDTQALESDLSSVLGLDVSIDHRGSTGTLTITYATLEQLDDLCNRLTRGI
# Variants of: B1
# Experiment: one-hybrid fitness for binding parS DNA (scaled: cognate 1, non-cognate 0); higher = stronger binding
# Details: with parS DNA site
# How it was run: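 Fitness is the rescaled log change in variant-to-wild-type read ratio, measured by Illumina sequencing of plasmids before and after bacterial one-hybrid selection. The scale puts cognate at 1 and non-cognate at 0. Selection of Caulobacter ParB libraries, four specificity codons randomised, took place in E. coli USO with a HIS3 reporter, site 19 bp from the promoter, over 48 hours at 37°C on M9-minus-histidine with 0.1 mM IPTG and 5 mM 3-AT.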
row,Variant,one-hybrid fitness for binding parS DNA
1,SAWW,≤ 0.2
2,TIPH,≤ 0.2
3,ALRW,≤ 0.2
4,YPQI,≤ 0.2
5,GCSW,≤ 0.2
6,APFW,≤ 0.2
7,RGTE,≤ 0.2
8,TKSL,≤ 0.2
9,PHAN,≤ 0.2
10,KRCE,≤ 0.2
11,IVAR,≤ 0.2
12,HKVR,≤ 0.2
13,GDDR,≤ 0.2
14,AVFS,≤ 0.2
15,GKGD,0.353
16,WSIM,≤ 0.2
17,SHAG,≤ 0.2
18,KPPT,≤ 0.2
19,DIQM,≤ 0.2
20,TFPR,≤ 0.2
21,RTIP,≤ 0.2
22,RKPS,0.682
23,IWST,≤ 0.2
24,GHTR,≤ 0.2
25,QKWT,≤ 0.2
26,YAHS,≤ 0.2

row,Variant,one-hybrid fitness for binding parS DNA
1,GPVL,≤ 0.2
2,HANM,≤ 0.2
3,RPCN,≤ 0.2
4,RLVR,≤ 0.2
5,VLKN,≤ 0.2
6,CLRN,≤ 0.2
7,ARMN,≤ 0.2
8,CFPG,≤ 0.2
9,PQPD,≤ 0.2
10,AEKT,≤ 0.2
11,AHDP,0.32
12,SSLK,≤ 0.2
13,THLT,≤ 0.2
14,EQAT,≤ 0.2
15,RSSC,0.966
16,NEMT,≤ 0.2
17,PRAS,≤ 0.2
18,MNMN,≤ 0.2
19,MSTG,≤ 0.2
20,GFYS,≤ 0.2
21,VPTI,≤ 0.2
22,QCCI,≤ 0.2
23,SAQL,≤ 0.2
24,CTTK,≤ 0.2
25,KINR,≤ 0.2
26,KMPT,≤ 0.2

row,Variant,one-hybrid fitness for binding parS DNA
1,PPRY,≤ 0.2
2,PITI,≤ 0.2
3,NMFR,≤ 0.2
4,NTSI,≤ 0.2
5,PSNM,≤ 0.2
6,AWIY,≤ 0.2
7,DLNL,≤ 0.2
8,SRSL,≤ 0.2
9,TDCL,≤ 0.2
10,KQKY,≤ 0.2
11,AYNA,≤ 0.2
12,CTHL,≤ 0.2
13,PLTY,≤ 0.2
14,TRHF,≤ 0.2
15,ELAY,≤ 0.2
16,AEIT,≤ 0.2
17,DKYI,≤ 0.2
18,CLPR,≤ 0.2
19,SLYY,≤ 0.2
20,GSGE,≤ 0.2
21,QGRF,≤ 0.2
22,RQLD,≤ 0.2
23,NTCW,≤ 0.2
24,GYFG,≤ 0.2
25,DPGV,≤ 0.2
26,RIQC,1

row,Variant,one-hybrid fitness for binding parS DNA
1,LIKI,≤ 0.2
2,WMLG,≤ 0.2
3,DQYS,≤ 0.2
4,GSTW,≤ 0.2
5,RSEE,≤ 0.2
6,MLWM,≤ 0.2
7,TDSV,≤ 0.2
8,HNLN,≤ 0.2
9,QTVW,≤ 0.2
10,FCTG,≤ 0.2
11,QDLW,≤ 0.2
12,LHAW,≤ 0.2
13,MVPT,≤ 0.2
14,QSLS,≤ 0.2
15,RNKS,0.936
16,LILI,≤ 0.2
17,DSER,≤ 0.2
18,TPWV,≤ 0.2
19,CVKL,≤ 0.2
20,ASSH,≤ 0.2
21,TKFL,≤ 0.2
22,SFYT,≤ 0.2
23,KKSV,≤ 0.2
24,DQTP,≤ 0.2
25,PAGN,≤ 0.2
26,PFHI,≤ 0.2

row,Variant,one-hybrid fitness for binding parS DNA
1,QAKE,≤ 0.2
2,ILDS,≤ 0.2
3,LIYY,≤ 0.2
4,NQKG,≤ 0.2
5,QKNY,≤ 0.2
6,DYEI,≤ 0.2
7,KADV,≤ 0.2
8,IGTC,≤ 0.2
9,PPWL,≤ 0.2
10,RNFK,≤ 0.2
11,AIVF,≤ 0.2
12,IACM,≤ 0.2
13,YDLL,≤ 0.2
14,LTPL,≤ 0.2
15,LRHV,≤ 0.2
16,RSKR,≤ 0.2
17,DKVC,≤ 0.2
18,NMNR,≤ 0.2
19,TGPG,≤ 0.2
20,FMTN,≤ 0.2
21,HHDS,≤ 0.2
22,VRRC,≤ 0.2
23,RMCA,0.633
24,SRIQ,≤ 0.2
25,PPPS,≤ 0.2
26,LHKL,≤ 0.2

row,Variant,one-hybrid fitness for binding parS DNA
1,EAFW,≤ 0.2
2,YLQA,≤ 0.2
3,QAGN,≤ 0.2
4,GERN,≤ 0.2
5,RISA,0.608
6,PRRK,≤ 0.2
7,NVYG,≤ 0.2
8,RGQY,0.263
9,TGAD,≤ 0.2
10,RVID,≤ 0.2
11,LSQE,≤ 0.2
12,NKTI,≤ 0.2
13,QLVY,≤ 0.2
14,LKPS,≤ 0.2
15,PDLY,≤ 0.2
16,SFTH,≤ 0.2
17,SDQS,≤ 0.2
18,NVDE,≤ 0.2
19,TESQ,≤ 0.2
20,HREV,≤ 0.2
21,MEYG,≤ 0.2
22,EGLW,≤ 0.2
23,RNNA,0.529
